We go through 96 compounds from PubChem BioAssay AID485344 (National Center for Advancing Translational Sciences (NCATS), 2010).

Molecules are shown by their SMILES. Hit rate of the full screen: of about 340,000 compounds, about 6,900 (2%) were called active. No stated cut-off is given here; in the data, active means inhibition above about 30%; inactive means below that, where a call was filed. This is a selection; strong and weak results do not stand in their true shares. The source gives no active or inactive call for entries shown without one.

Sequence of UniProt P14416 (P14416 whole entry, looked up): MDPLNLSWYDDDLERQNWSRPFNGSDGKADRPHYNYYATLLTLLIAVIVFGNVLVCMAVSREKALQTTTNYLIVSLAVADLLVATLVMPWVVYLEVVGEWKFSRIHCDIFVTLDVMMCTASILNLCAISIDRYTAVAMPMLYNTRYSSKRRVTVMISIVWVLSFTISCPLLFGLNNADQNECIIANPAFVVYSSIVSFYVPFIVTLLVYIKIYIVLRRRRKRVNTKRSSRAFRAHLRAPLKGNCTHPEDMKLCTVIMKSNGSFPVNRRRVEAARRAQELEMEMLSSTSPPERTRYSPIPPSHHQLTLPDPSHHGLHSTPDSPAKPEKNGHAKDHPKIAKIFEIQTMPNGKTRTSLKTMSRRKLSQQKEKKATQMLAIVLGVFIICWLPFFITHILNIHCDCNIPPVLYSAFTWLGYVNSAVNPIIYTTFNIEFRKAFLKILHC

The target of this assay is D(2) dopamine receptor (Homo sapiens) (UniProt P14416). Put plainly: HTS Assay for Allosteric Antagonists of the Human D2 Dopamine Receptor: Primary Screen for Antagonists. Further: 0% is about no effect. As to conditions: HEK293 TREx D2 cells, calcium flux, dopamine EC80; at 10 µM; stronger effect = higher value. In outline:
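Antagonism is scored as inhibition of an EC80 dopamine-evoked calcium signal in a force-coupled, tetracycline-inducible HEK293 T-REx D2 line, with compound present 180 s before agonist.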
With `O=C(c1cnn(-c2ccc(F)cc2)c1-n1cccc1)N1CCN(c2ccc(F)cc2)CC1`, the inhibition is -3.72%.

Consider `CC1CCN(S(=O)(=O)c2ccc3c(c2)CCN3)CC1`, for which the inhibition is 21.8%.

As for `CC1=C(C(=O)Nc2cccc(Cl)c2C)C2(CCCCCC2)OC1=O`, the inhibition is -16%.

Turning to `CCCCN(C)C(=O)c1cn(C)c2ccc(S(=O)(=O)N3CCC(C)CC3)cc2c1=O`, the inhibition stood at 2.32%.

On to `CCc1ccc(NC(=O)CSC2=Nc3ccccc3C3=NC(CCC(=O)NCc4ccccc4)C(=O)N23)cc1` (stereo unspecified), for which the inhibition stood at 0.768%.

For `Cc1ccccc1NC(=O)Cn1cc(C(=O)c2cccs2)c2ccccc21`, the inhibition came to 23.1%.

Take `O=C(Cn1ccc2cc(S(=O)(=O)N3CCCCC3)ccc21)NCCc1ccccc1Cl`: the inhibition was -3.46%.

Regarding `COc1ccccc1NC(=O)Cn1c(=O)n(Cc2ccccc2)c(=O)c2c1c1cc(C)ccc1n2C`, the inhibition turned out to be 1.78%.

Regarding `CCCCC(=O)OC1=C(C(=O)c2ccccc2)N(CCC)S(=O)(=O)c2ccccc21`, the inhibition was -10.8%.

On to `CC(NC(=O)CSc1n[nH]c(-c2ccccc2Cl)n1)c1nc2ccccc2[nH]1` (stereo unspecified), for which the inhibition came to 8.13%.

Consider `CCOc1cc(C(=O)NCCc2sc(-c3ccc(F)cc3)nc2C)cc(OCC)c1OCC`, for which the inhibition came out at 12.2%.

`CNC(=O)CCCN1C(=O)c2cccnc2Sc2ccccc21`: the inhibition came out at 2.41%.

`Cc1nc2ccc(S(=O)(=O)N(CC(=O)Nc3ccc(F)cc3F)Cc3ccccc3)cc2s1`: the inhibition was -2.09%.

Take `CCOc1ccc(NC(=O)c2ccc3[nH]c(C)c(C)c3c2)cc1`: the inhibition is 12.4%.

Consider `O=C(Cn1c(SCc2ccccc2F)nc2ccncc21)Nc1ccccc1C(F)(F)F`, for which the inhibition was determined as 4.48%.

Consider `O=C(Cn1c(=O)c2cccn2c2cccnc21)NCc1cccc(F)c1`, for which the inhibition is 7.62%.

Turning to `Cc1ccc(S(=O)(=O)Nc2cccc(-c3cn4cccc(C)c4n3)c2)c(C)c1`, the inhibition was 12.4%.

In the case of `CCOc1ccc(NS(=O)(=O)c2cc3c(cc2Cl)NC(=O)CO3)cc1`, the inhibition is 1.94%.

As for `Cc1cc(C)c(NC(=O)CCS(=O)(=O)c2cc3c(cc2Cl)NC(=O)CO3)c(C)c1`, the inhibition is -22.1%.

`CC(=O)Nc1ccc(NC(=O)CCCn2nc(C)c3sc4ccccc4c3c2=O)cc1`: the inhibition stood at 17.6%.

`COc1cc2c(cc1OC)C(COc1cccc(C(F)(F)F)c1)N(C(=O)c1ccc(S(=O)(=O)N3CCCC3)cc1)CC2` (stereo unspecified): the inhibition stood at 18.4%.

Regarding `CCC(C)NC(=O)C1CCN(S(=O)(=O)c2ccc3c(c2)CCCN3C(C)=O)CC1` (stereo unspecified), the inhibition was -1.49%.

As to `CCn1cc(C(=O)N2CCN(c3ccc(C)cc3)C(C)C2)c(=O)c2cc(S(=O)(=O)N3CCCC3)ccc21` (stereo unspecified), the inhibition is -4.51%.

For `CCc1ccccc1NC(=O)C(=O)NCCCN1CCOCC1`, the inhibition was found to be 2.4%.

For the compound `CC(=O)c1cccc(NC(=O)c2nc(-c3ccccc3)n(-c3ccccc3)n2)c1`, the inhibition amounted to 10.1%.

As to `O=C1CCCc2cc(S(=O)(=O)N3CCCC(C(=O)NCc4ccccc4)C3)ccc2N1` (stereo unspecified), the inhibition was found to be 15.2%.

Turning to `Cc1cc(C)c(NC(=O)CN(C)S(=O)(=O)c2ccc3c(c2)CCC(=O)N3)c(C)c1`, the inhibition was -0.805%.

As to `COc1ccc(CNC(=O)c2cc3c(=O)n(Cc4ccco4)ccc3nc2C)cc1`, the inhibition was determined as 5.08%.

As for `COc1cccc(NC(=O)CCNS(=O)(=O)c2ccc3c(c2)oc(=O)n3C)c1`, the inhibition is -17.6%.

For `Cc1ccc(S(=O)(=O)N(C)C)cc1NC(=O)C1CCCN(C(=O)c2ccc(Cl)cc2)C1` (stereo unspecified), the inhibition was active: 31.2%.

In the case of `Cc1cc(C)c2c(=O)n(CC(=O)NCCCN3CCN(c4ccccc4F)CC3)sc2n1`, the inhibition was active: 53.5%.

With `COc1ccc(C2=NC(c3ccncc3)=Nc3ccc(OC)cc3N2)cc1`, the inhibition is -6.64%.

Regarding `COc1ccc(-c2noc(N3CCC(C(=O)N4CCN(c5cccc(C)c5C)CC4)CC3)n2)cc1`, the inhibition was 8.85%.

In the case of `COc1ccc(C2=C(C)C(=O)N(Cc3ccc(C(=O)NCc4cccc(C)c4)cc3)S2(=O)=O)cc1`, the inhibition is -12.8%.

On to `CCOc1ccc(NC(=O)CCNS(=O)(=O)c2cccc3nonc23)cc1`, for which the inhibition is -14.8%.

`COc1ccc(-c2noc(COc3cc(C)ccc3C)n2)cc1OC`: the inhibition is -7.65%.

Take `O=C(COc1ccc(F)cc1)Nc1ccc2nc(SCC(=O)N3CCOCC3)sc2c1`: the inhibition was -1.15%.

On to `CC(C)c1ccc(N2C(=O)CSC23C(=O)N(C)c2ccccc23)cc1` (stereo unspecified), for which the inhibition is -0.0545%.

Regarding `O=C1[C@@H]2CSC(c3ccc(Cl)cc3)N2C(=O)N1c1ccccc1` (stereo partly specified), the inhibition is -1.86%.

On to `CCCN(C(=O)c1cc2c(=O)[nH]c3ccc(C)cc3c2s1)c1ccc(CC)cc1`, for which the inhibition was -5.48%.

As to `CC1CCN(C(=O)c2cc(-c3ccc(Br)cc3)on2)CC1`, the inhibition is -1.28%.

For the compound `CCOc1ccc(CNS(=O)(=O)c2ccc3c(c2)CCCN3C(C)=O)cc1OC`, the inhibition is -20.1%.

With `CCc1nnc2c(N3CCN(c4cc(Cl)ccc4C)CC3)nc3ccccc3n12`, the inhibition was 12.5%.

On to `CCOC(=O)C1CCCN(C(=O)c2nn(-c3ccc(C)cc3)c(=O)n(C)c2=O)C1` (stereo unspecified), for which the inhibition was -9.72%.

For the compound `Cc1oc(-c2ccccc2Cl)nc1CSc1nc2ncccc2[nH]1`, the inhibition was determined as 6.01%.

`CCOC(=O)c1c(C)n(-c2ccccc2)c2ccc(OC(=O)c3cccc(OC)c3OC)cc12`: the inhibition amounted to 17%.

For the compound `O=C(NCc1cccc(Cl)c1)c1ccc2nc(N3CCCCC3)sc2c1`, the inhibition is -3.34%.

As for `CCN(CC)C(=O)c1ccc(Nc2nnc(-c3ccc(C)c(S(=O)(=O)NC)c3)c3ccccc23)cc1`, the inhibition stood at 13.2%.

With `CCc1cccc(N2C(=O)CSC23C(=O)Nc2ccccc23)c1` (stereo unspecified), the inhibition is 2.46%.

Take `Cc1c(CC(=O)N[C@@H](C)C(=O)O)c(=O)oc2cc3c(cc12)CCC(C)(C)O3`: the inhibition is active: 36.3%.

For the compound `CCOC(=O)c1c(NC(=O)c2cc(-c3cccc(OC)c3)on2)sc2c1CCCC2`, the inhibition is -1.72%.

As to `COc1cccc(CNC(=O)Cc2c(C(=O)O)c(C)cn2C)c1`, the inhibition amounted to 18.6%.

As to `COc1ccc(CC(=O)NCC(c2cccs2)S(=O)(=O)c2ccc(C)cc2)cc1` (stereo unspecified), the inhibition came to 5.64%.

On to `CCc1ccc(NC(=O)Cn2c(=O)n(Cc3ccco3)c(=O)c3oc4ccccc4c32)cc1`, for which the inhibition is 4.29%.

As for `O=C(N/N=C/c1ccc(OC(F)F)cc1)c1ccc(Br)cc1`, the inhibition is active: 31.3%.

For the compound `CC(C)c1ccc(NC(=O)CN2C(=O)COc3ccc(S(=O)(=O)N4CCCCCC4)cc32)cc1`, the inhibition is -8.73%.

Consider `CCCCOc1ccccc1CC1C(=O)Nc2ccc(Br)cc21` (stereo unspecified), for which the inhibition worked out at 16.1%.

`O=C(NCc1cccs1)c1ccc(CSc2nc3cccnc3n2Cc2ccccc2F)cc1`: the inhibition was -14.4%.

As to `COc1ccc(NC(=O)C2CCCN(S(=O)(=O)c3ccc(Br)s3)C2)cc1` (stereo unspecified), the inhibition is -11.5%.

As to `CC(=O)N1CCc2cc(S(=O)(=O)NC(C(=O)Nc3ccc(C)cc3C)C(C)C)ccc21` (stereo unspecified), the inhibition was -3.47%.

With `CSc1cccc(Nc2cc(C(=O)NCCCN(C)c3ccccc3)c3ccccc3n2)c1`, the inhibition is -19.6%.

As to `CCOC(=O)c1c(-c2ccc(C)cc2)csc1NC(=O)c1cc(=O)c2ccc(C)cc2o1`, the inhibition was found to be 7.31%.

With `COc1ccccc1N1CCN(CC(=O)Nc2ccc(CN3CCCCC3)cc2)CC1`, the inhibition was active: 39.1%.

Consider `COc1ccc(/C=C/C(=O)Nc2nc3n(n2)C(c2ccc(F)cc2)C=C(c2ccccc2)N3)cc1` (stereo unspecified), for which the inhibition was determined as 11.8%.

Turning to `COc1ccc(NC(=O)Cn2c(=O)n(Cc3nc(-c4ccccc4)no3)c(=O)c3ccccc32)cc1Cl`, the inhibition worked out at 6.4%.

Consider `Cc1ccc2c(c1)C1CN(C)CCC1N2Sc1ccccc1[N+](=O)[O-]` (stereo unspecified), for which the inhibition is active: 43.1%.

Consider `CCc1cccc(-n2c(=O)c3cccnc3n2CC(=O)Nc2ccc(F)c(C)c2)c1`, for which the inhibition is -6.39%.

For `CC(C)c1ccc(Nc2cc(C(=O)NC3CCCCC3)c3ccccc3n2)cc1`, the inhibition turned out to be 11.7%.

Turning to `CCc1ccc2occ(CC(=O)Nc3ccccc3C(F)(F)F)c2c1`, the inhibition amounted to 13.4%.

Regarding `O=C(NCCn1ccc2ccccc21)c1ccc(Cl)cc1`, the inhibition was found to be 22.1%.

Regarding `COc1ccccc1NC(=O)CSc1nc(-c2ccc(C(C)(C)C)cc2)c(C#N)c(=O)[nH]1`, the inhibition was -12.7%.

Regarding `CCOc1ccccc1-n1nnc(-c2nsc(NC(=O)c3ccc(C)cc3)n2)c1C`, the inhibition is 10.8%.

As for `CCOc1ccc(C(=O)c2oc3ccccc3c2NC(=O)Cc2coc3ccc(CC)cc23)cc1`, the inhibition is -4.32%.

For the compound `Cc1cccc(NC(=O)N2CCC3(CC2)Oc2ccccc2C(=O)N3Cc2ccccc2F)c1C`, the inhibition came to 1.48%.

For `CCc1ccc(CNC(=O)c2c(C)oc3ncnc(N4CCOCC4)c23)cc1`, the inhibition is -7.45%.

For the compound `COc1cc2ccccc2cc1C(=O)Nc1ccc2oc(-c3ccc(F)cc3Cl)nc2c1`, the inhibition was -1.31%.

As to `COc1cccc(C(=O)Nc2c(C(=O)N3CCN(c4ccc(F)cc4)CC3)oc3ccccc23)c1`, the inhibition turned out to be 3.09%.

In the case of `CN(C)CCCN1c2ccccc2CCc2ccccc21`, the inhibition is active: 60.4%.

On to `CCOc1ccc(NC(=O)C2CCC(CNS(=O)(=O)c3ccc(Br)s3)CC2)cc1` (stereo unspecified), for which the inhibition is 10.2%.

Turning to `CC1=C(c2ccc(C)c(C)c2)S(=O)(=O)N=C1N1CCC(C(=O)N2CCC(C)CC2)CC1`, the inhibition is 15.9%.

Take `Cc1ccccc1OCc1ccc(-c2nc(C#N)c(NCc3cccnc3)o2)o1`: the inhibition is -0.995%.

Turning to `CCOc1cc(/C=C(\C#N)C(=O)NCC2CCCO2)ccc1O` (stereo unspecified), the inhibition is -5.92%.

Take `CCc1ccc(C(=O)c2cn(CC(=O)Nc3ccc4c(c3)OCO4)c3ccc(OC)cc3c2=O)cc1`: the inhibition amounted to 5.77%.

Turning to `Cn1c(C(=O)Nc2cccc(C(F)(F)F)c2)cc2c(=O)n3ccccc3nc21`, the inhibition is -17%.

On to `Cc1ccc(N2CC(NC(=O)c3cccs3)CC2=O)cc1C` (stereo unspecified), for which the inhibition amounted to 3.43%.

For `Cc1cccc(NC(=O)c2ccc(-n3cnc4cccnc43)cc2)c1C`, the inhibition was found to be 8.64%.

Turning to `COc1cc(NC(=O)c2cccc3c2C(=O)N(C2CCCCC2)C3)cc(OC)c1OC`, the inhibition was -3.65%.

As to `Fc1ccc([C@@H]2CCNC[C@H]2COc2ccc3c(c2)OCO3)cc1`, the inhibition was active: 40.7%.

Turning to `Oc1ccccc1-c1nc(/C=C/c2ccccc2Cl)nn1-c1ccccc1`, the inhibition was 7.24%.

Regarding `CNc1ncnc2c1cnn2-c1ccc(C)c(C)c1`, the inhibition came out at 16.3%.

Consider `Cc1ccccc1CNC(=O)CCCn1c(=O)c2cccn2c2cccnc21`, for which the inhibition was determined as 1.5%.

As for `CCOC(=O)c1c(-c2ccc(OC)cc2)oc2ccc(OCc3ccccc3C)cc12`, the inhibition was -12.5%.

On to `CCN(CC)CCNC(=O)C1CCN(c2nn3cc(-c4ccc(F)cc4)nc3s2)CC1`, for which the inhibition is -11.4%.

For `Cc1cccn2c(=O)c(C(=O)NCc3ccc(F)cc3)c(O)nc12`, the inhibition is 12.4%.

In the case of `CCOC(=O)c1c(C)[nH]c(C)c1S(=O)(=O)N1CCCC(C(=O)NCc2cccc(C)c2)C1` (stereo unspecified), the inhibition is -6.62%.

On to `O=c1cc(-c2ccccc2)nc(SCc2nc(-c3ccccc3Cl)no2)[nH]1`, for which the inhibition worked out at 8.46%.
